# Laboratory results from the supplement of paper PMC8728848.
# Some of the results follow.
# B1: SLR2P3F12 (Tachypleus tridentatus), TAL2_TACTR (protein)
# chain: MEKGTPPTHDSDNWMGRAKKIGNGGWNQFQFLFFDPNGYLYAVSKDKLYKASPPQSDTDNWIARATEIGSGGWSGFKSLFFHPNGYLYAVHGQRLYKALPPVSNQD
# Key:
# Assay in all cases: glycan array binding signal (z-score within array); higher = stronger binding
# Details in all cases: glycan notation: IUPAC condensed, linker removed
# [1] = biological target: Fuc(a1-2)[GalNAc(a1-3)]Gal(b1-4)[Fuc(a1-3)]GlcNAc
# Summary of the method: (§1)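 Negative Z-scores can be read as non-binding. The Z-score is calculated within each array and then averaged across arrays of one protein sequence at different concentrations or buffers and across linkers. Arrays, 3228 in all, were curated from the Consortium for Functional Glycomics database and kept only where the protein sequence was available.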
# [2] = biological target: Fuc(a1-2)[GalNAc(a1-4)]Gal(b1-4)GlcNAc
# Summary of the method: as §1
# [3] = biological target: Fuc(a1-2)[GalNAc(b1-3)]Gal
# Summary of the method: as §1
# Fuc(a1-3)GlcNAc = biological target: Fuc(a1-3)GlcNAc
# Summary of the method: as §1
# [4] = biological target: Fuc(a1-3)[Gal(b1-4)]Glc6S
# Summary of the method: as §1
# [5] = biological target: Fuc(a1-3)[Gal(b1-4)]GlcNAc
# Summary of the method: as §1
# [6] = biological target: Fuc(a1-3)[Gal(b1-4)]GlcNAc(b1-2)Man(a1-3)[Fuc(a1-3)[Gal(b1-4)]GlcNAc(b1-2)Man(a1-6)]Man(b1-4)GlcNAc(b1-4)GlcNAc
# Summary of the method: as §1
# [7] = biological target: Fuc(a1-3)[Gal(b1-4)]GlcNAc(b1-2)Man(a1-6)[Gal(b1-4)GlcNAc(b1-2)Man(a1-3)]Man(b1-4)GlcNAc(b1-4)GlcNAc
# Summary of the method: as §1
# [8] = biological target: Fuc(a1-3)[Gal(b1-4)]GlcNAc(b1-3)Gal(b1-3)[Fuc(a1-4)]GlcNAc
# Summary of the method: as §1
# [9] = biological target: Fuc(a1-3)[Gal(b1-4)]GlcNAc(b1-4)Gal(b1-4)[Fuc(a1-3)]GlcNAc
# Summary of the method: as §1
# [10] = biological target: Fuc(a1-3)[Gal(b1-4)]GlcNAc(b1-4)Gal(b1-4)[Fuc(a1-3)]GlcNAc(b1-4)Gal(b1-4)[Fuc(a1-3)]GlcNAc
# Summary of the method: as §1
# [11] = biological target: Fuc(a1-3)[Gal(b1-4)]GlcNAc6S
# Summary of the method: as §1
# [12] = biological target: Fuc(a1-3)[Gal3S(b1-4)]Glc6S
# Summary of the method: as §1
# [13] = biological target: Fuc(a1-3)[Gal3S(b1-4)]GlcNAc
# Summary of the method: as §1
# [14] = biological target: Fuc(a1-3)[Gal3S(b1-4)]GlcNAc6S
# Summary of the method: as §1
# [15] = biological target: Fuc(a1-3)[GalNAc(b1-4)]GlcNAc
# Summary of the method: as §1
# Fuc(a1-4)GlcNAc = biological target: Fuc(a1-4)GlcNAc
# Summary of the method: as §1
# Fuc(b1-3)GlcNAc = biological target: Fuc(b1-3)GlcNAc
# Summary of the method: as §1
# Gal(a1-2)Gal = biological target: Gal(a1-2)Gal
# Summary of the method: as §1
# Gal(a1-3)Gal = biological target: Gal(a1-3)Gal
# Summary of the method: as §1
# Gal(a1-3)Gal(b1-3)GlcNAc = biological target: Gal(a1-3)Gal(b1-3)GlcNAc
# Summary of the method: as §1
# Gal(a1-3)Gal(b1-4)Glc = biological target: Gal(a1-3)Gal(b1-4)Glc
# Summary of the method: as §1
# Gal(a1-3)Gal(b1-4)GlcNAc = biological target: Gal(a1-3)Gal(b1-4)GlcNAc
# Summary of the method: as §1
# [16] = biological target: Gal(a1-3)Gal(b1-4)[Fuc(a1-3)]GlcNAc
# Summary of the method: as §1
# Gal(a1-3)GalNAc = biological target: Gal(a1-3)GalNAc
# Summary of the method: as §1
# [17] = biological target: Gal(a1-3)[Gal(a1-4)]Gal(b1-4)GlcNAc
# Summary of the method: as §1
# Gal(a1-4)Gal(b1-4)Glc = biological target: Gal(a1-4)Gal(b1-4)Glc
# Summary of the method: as §1
# Gal(a1-4)Gal(b1-4)GlcNAc = biological target: Gal(a1-4)Gal(b1-4)GlcNAc
# Summary of the method: as §1
# Gal(a1-4)GlcNAc = biological target: Gal(a1-4)GlcNAc
# Summary of the method: as §1
# Gal(a1-6)Glc = biological target: Gal(a1-6)Glc
# Summary of the method: as §1
# Gal(b1-2)Gal = biological target: Gal(b1-2)Gal
# Summary of the method: as §1
# Gal(b1-3)Gal = biological target: Gal(b1-3)Gal
# Summary of the method: as §1
# Gal(b1-3)Gal(b1-4)GlcNAc = biological target: Gal(b1-3)Gal(b1-4)GlcNAc
# Summary of the method: as §1
# Gal(b1-3)GalNAc = biological target: Gal(b1-3)GalNAc
# Summary of the method: as §1
# [18] = biological target: Gal(b1-3)GalNAc(b1-3)Gal(a1-4)Gal(b1-4)Glc
# Summary of the method: as §1
# [19] = biological target: Gal(b1-3)GalNAc(b1-4)Gal(b1-4)Glc
# Summary of the method: as §1
# [20] = biological target: Gal(b1-3)GalNAc(b1-4)[Neu5Ac(a2-3)]Gal(b1-4)Glc
# Summary of the method: as §1
# Gal(b1-3)GlcNAc = biological target: Gal(b1-3)GlcNAc
# Summary of the method: as §1
# [21] = biological target: Gal(b1-3)GlcNAc(b1-2)Man(a1-3)[Gal(b1-3)GlcNAc(b1-2)Man(a1-6)]Man(b1-4)GlcNAc(b1-4)GlcNAc
# Summary of the method: as §1
# [22] = biological target: Gal(b1-3)GlcNAc(b1-3)Gal(b1-3)GlcNAc
# Summary of the method: as §1
# [23] = biological target: Gal(b1-3)GlcNAc(b1-3)Gal(b1-4)Glc
# Summary of the method: as §1
# [24] = biological target: Gal(b1-3)GlcNAc(b1-3)Gal(b1-4)GlcNAc
# Summary of the method: as §1
# [25] = biological target: Gal(b1-3)[Fuc(a1-4)]GlcNAc
# Summary of the method: as §1
# [26] = biological target: Gal(b1-3)[Fuc(a1-4)]GlcNAc(b1-3)Gal(b1-3)[Fuc(a1-4)]GlcNAc
# Summary of the method: as §1
# [27] = biological target: Gal(b1-3)[Fuc(a1-4)]GlcNAc(b1-3)Gal(b1-4)GlcNAc
# Summary of the method: as §1
binder,measurement,setting,value
B1,glycan array binding signal (z-score),[1],0.313
same,glycan array binding signal (z-score),[2],2.01
same,glycan array binding signal (z-score),[3],-0.327
same,glycan array binding signal (z-score),Fuc(a1-3)GlcNAc,-0.301
same,glycan array binding signal (z-score),[4],-0.103
same,glycan array binding signal (z-score),[5],-0.326
same,glycan array binding signal (z-score),[6],-0.066
same,glycan array binding signal (z-score),[7],0.218
same,glycan array binding signal (z-score),[8],-0.438
same,glycan array binding signal (z-score),[9],-0.412
same,glycan array binding signal (z-score),[10],0.667
same,glycan array binding signal (z-score),[11],1.11
same,glycan array binding signal (z-score),[12],-0.266
same,glycan array binding signal (z-score),[13],-0.46
same,glycan array binding signal (z-score),[14],-0.534
same,glycan array binding signal (z-score),[15],-0.329
same,glycan array binding signal (z-score),Fuc(a1-4)GlcNAc,1.42
same,glycan array binding signal (z-score),Fuc(b1-3)GlcNAc,0.809
same,glycan array binding signal (z-score),Gal(a1-2)Gal,-0.288
same,glycan array binding signal (z-score),Gal(a1-3)Gal,-0.2
same,glycan array binding signal (z-score),Gal(a1-3)Gal(b1-3)GlcNAc,1.14
same,glycan array binding signal (z-score),Gal(a1-3)Gal(b1-4)Glc,0.739
same,glycan array binding signal (z-score),Gal(a1-3)Gal(b1-4)GlcNAc,-0.347
same,glycan array binding signal (z-score),[16],-0.316
same,glycan array binding signal (z-score),Gal(a1-3)GalNAc,0.267
same,glycan array binding signal (z-score),[17],0.143
same,glycan array binding signal (z-score),Gal(a1-4)Gal(b1-4)Glc,-0.342
same,glycan array binding signal (z-score),Gal(a1-4)Gal(b1-4)GlcNAc,-0.415
same,glycan array binding signal (z-score),Gal(a1-4)GlcNAc,-0.332
same,glycan array binding signal (z-score),Gal(a1-6)Glc,-0.386
same,glycan array binding signal (z-score),Gal(b1-2)Gal,-0.355
same,glycan array binding signal (z-score),Gal(b1-3)Gal,0.007
same,glycan array binding signal (z-score),Gal(b1-3)Gal(b1-4)GlcNAc,0.011
same,glycan array binding signal (z-score),Gal(b1-3)GalNAc,-0.132
same,glycan array binding signal (z-score),[18],-0.32
same,glycan array binding signal (z-score),[19],0.988
same,glycan array binding signal (z-score),[20],0.354
same,glycan array binding signal (z-score),Gal(b1-3)GlcNAc,0.128
same,glycan array binding signal (z-score),[21],-0.027
same,glycan array binding signal (z-score),[22],-0.347
same,glycan array binding signal (z-score),[23],-0.266
same,glycan array binding signal (z-score),[24],0.012
same,glycan array binding signal (z-score),[25],0.264
same,glycan array binding signal (z-score),[26],0.248
same,glycan array binding signal (z-score),[27],0.593
